This passage reports self-cleavage results from the RNAGym collection of RNA variant scans (doi:10.7554/elife.90254).

To fix the notation:
B1: LINE1-mini (parent)
chain: GGCAGAGCUCAACACAGCGUGGCAAAGUGGCUGUGGCUAGACUGCC

Read counts are not given, so values of variants with three or more changes are uncertain.

The variants in the data set derive from B1. Kind of data set: self-cleavage, relative activity (ratio to wild type); higher = more cleavage; in vitro, sequencing; the parent is a self-cleaving ribozyme.
As for G17A G19U C31A, the self-cleavage is 0.15.

Take G5A A14U G40A: the self-cleavage is 0.13. For C10U A12G C18A U38A the value was 0; for G7U C10A A14G G22C, 0.04. For G22C G27A C31U G40U C46A the value was 0.02; for C3U U9A G21A G27U G36C G40A, 0.06. For the variant C3A C23U G30U G33C, the self-cleavage turned out to be 0.26. For C3A G7C A39U the value was 0.22; for G1U U9A G21U, 0.06. For A16G U28G U34C C37U U43A the value was 0.02.

With G22U G27U G29A, the self-cleavage turned out to be 2.46. For G7A U34G A39G C45U, the self-cleavage came to 0. For A14C G19U U34G the value was 0.05; for C10U C18G A26U C46A, 0.07. For G1U A26C C37A the value was 0.04. For G21U U28C G35U C37G the value was 0.01; for C3A A11G G17C G30U C37U, 0.04. In the case of G2U G5A A14U U20A C31U, the self-cleavage turned out to be 0.01. For G1C U20A G21U G44C, the self-cleavage came out at 0.05. As to A11C G35C A39G, the self-cleavage came out at 0.01. Take C18A A24C A26U: the self-cleavage was 0.1. With G1A A12G G33C C46A, the self-cleavage came out at 0.06.

On to C10U G29C G30U U34C C42A, for which the self-cleavage is 0.02. For C8G C10A C15G A24G, the self-cleavage stood at 0.03. As for U9C U20C C37A C42U, the self-cleavage amounted to 0. C15G C23G U43C: the self-cleavage was found to be 0.03. For the variant C13G U38G A41U C42A, the self-cleavage turned out to be 0.02. For G7U C23U U34C A39G the value was 0.03; for A24U U28A G29A C31U A39G, 0.15. For G1C C23A U43G G44C, the self-cleavage came out at 0.01.

Consider G1C G21C C23G G44A, for which the self-cleavage was found to be 0.06. With G2U U9G A11C G19A G27A G35C, the self-cleavage was determined as 0. Regarding C3A G7A U43A, the self-cleavage was found to be 0.47.

As for G1C A4G A12C, the self-cleavage stood at 0.01. On to G17U C18G A24U A39G, for which the self-cleavage was determined as 0.05. On to G2A G21U A26C G30C, for which the self-cleavage is 0.75. For A16U C18A U20C G27U C37A C42A C46U the value was 0.02; for G29A C37U A41C, 0. For U28A G30U G44A the value was 0.06. As to G1U C8A G17C G36U C37U A41C, the self-cleavage is 0.02. For G30U C31U C37A the value was 0.08; for G5U G29A G36C, 0.04; for G7C C8U U9A, 0.06. Take G5U C8A A12G: the self-cleavage amounted to 0.06. For U20A A24U G40U the value was 0.08; for C23U U34A G40A, 0.07. Take G1A C8A G36C G44C: the self-cleavage turned out to be 0.26.

Regarding A4G G17C G35A, the self-cleavage was 0.04. For A12G A24U G36U the value was 0.03; for U28C U32C G44C, 0.04; for G2A G30U G40U G44U C46G, 0.08.

As to A4G G33A C37U, the self-cleavage worked out at 0.02. For A14C G21U A24C G27U U34G U38A the value was 0.03; for C3A C13U C15A C23U A25U, 0.45; for A4C G21U G29C G36C C46U, 0.49.

Regarding G7C C23A U32G G44A, the self-cleavage stood at 0.05.

Consider A4C G17U U20A G30C, for which the self-cleavage was found to be 0.11. A12U G19U C23A A41U: the self-cleavage came to 0.08.

With C10G A14G G27U G44A C45A, the self-cleavage amounted to 0.02. For G1A A14U G21C G29C G36C the value was 0.05; for A12U C18G G29U, 0.41.

For the variant G1U U9G C15U, the self-cleavage came out at 0.04. For C8A C13A C15U U34A, the self-cleavage turned out to be 0.02. In the case of G2A G7A A26C C42U, the self-cleavage was 0.2. Consider G5A G17U C18A, for which the self-cleavage was found to be 0.13. For G5U A6U C31A the value was 0.1.

As for U9G A14C C18G U20C C37U, the self-cleavage was found to be 0.04. For C18U U34G A41C C46A, the self-cleavage was found to be 0.01. For G17U G22C A24G C46G the value was 0.21.

Regarding G2C C42A U43G, the self-cleavage turned out to be 0.01.

On to G19U U20C C31A C37G, for which the self-cleavage was found to be 0.02.

In the case of C18U G21U G29U G35A, the self-cleavage was determined as 0.12.

C13U G33C G44U: the self-cleavage was determined as 0.03. With G2U G21U U34G, the self-cleavage was 0.02. On to C3A A6G C8A G17U U20C C31U G40C U43A, for which the self-cleavage is 0.18. For the variant C3G G7C C10G C13U G30A C45U, the self-cleavage was found to be 0.03.

Regarding U9A G22U G40C, the self-cleavage came to 0.07. For the variant G5U U9A G27C U38G, the self-cleavage amounted to 0.13. As to U9G G30A C45G, the self-cleavage was found to be 0.36. As to U9G U20A G30U, the self-cleavage came out at 0.11. For A16U A41G C42A the value was 0.03; for C10A U28C G33U G35C G40C, 0.01.

For the variant G2U G5A C23U, the self-cleavage turned out to be 0.03. For C23G C37U U38C the value was 0.01.

In the case of A11C C37U A39U G40U, the self-cleavage came out at 0. For A11G G30C G33A the value was 0.02; for G5C C10G G29C U32A G33U, 0.02.

As for A14U G19C G27U, the self-cleavage is 0.04. For A14C A16C G17C C23U U32G the value was 0; for G5U G22U U28C, 0.04; for G2U C13U G35U U43A, 0.02. On to G7C C10U U32C G40C C42A C45A, for which the self-cleavage worked out at 0.06. For the variant G33C G40A C45A, the self-cleavage is 0.05. For G2U U9G G35C A41G G44A C45A the value was 0.02; for G17U A26C C31A, 2.55; for G1C A26U U28G, 0.32.

Regarding G1A C8U C23G C46A, the self-cleavage turned out to be 0.96. For G1A G5C G7C A26U, the self-cleavage amounted to 0.3.

As to A12G A16C G19A, the self-cleavage worked out at 0.02.

For the variant A4U C8U C10A A26C, the self-cleavage was 0.02. For G2U G5A C10A U28C G33A A39G C42A the value was 0.01; for A24C G30A G36C, 0.02; for A24U U28A G44U, 0.28. On to A16U G27C G35A, for which the self-cleavage amounted to 0.17. For the variant C3A G5A G7A G29U G33A U43G, the self-cleavage came to 0.04. For the variant C3A A6G C15A G22U A24U G36U C45G, the self-cleavage turned out to be 0.16.

Turning to U20C G21U C31A C37G, the self-cleavage turned out to be 0.7.

For the variant G2C G19C A24G U38G, the self-cleavage turned out to be 0.01. In the case of G5A A6G C15U C31G, the self-cleavage worked out at 0.04. For C18A U28C G35U the value was 0.1. Turning to U20A G22U C46U, the self-cleavage amounted to 0.72. For A6U G17C G22C G40C the value was 0.05; for U9G C10A A14G, 0.01; for C13U G30A G40U, 0.15.

Regarding G22U G27U C37A, the self-cleavage was determined as 0.03. For A6U A11C U34C G36U A39C the value was 0; for A6U G7C U38A, 0.09; for U20G U34A G44C, 0.02. For G2C U20A A39U the value was 0.02; for C3A C10A G19A, 0.07.

For the variant G1A C3A G5U G7U U9G C31A G33A, the self-cleavage worked out at 1.75. In the case of A4U A12G A14C G19U A25U G27A C42A, the self-cleavage came to 0. For G2U C10A G19U C46U the value was 0.02; for G1U G5C G21U G40C, 0.01; for A14G G30C G36A G44A, 0.01. In the case of C10U G19U G27U G30C, the self-cleavage came to 0.9. For G1U C15U U38G the value was 0.01. As for G1U C8G G21U, the self-cleavage is 0.01. For G22C G27U U28C the value was 0.6. For C18U C31A C45A the value was 0.05; for U9G C13U G19C, 0.03; for G1A G7U U9C A14G G40U, 0.13. For A4G A6G G22C the value was 0.09; for G5C C8U C10A, 0.04.

C3G C13A G22A G40U: the self-cleavage turned out to be 0.06. Regarding A6U G17C G19U G29U, the self-cleavage came out at 0.19. In the case of C3A G5A C10U A39C C45A, the self-cleavage came to 0.07.

G2U C3G A11U U43C: the self-cleavage turned out to be 0.04. Turning to C8G C18U U28A G30U C45U, the self-cleavage came to 0.07. As for G7U G19A G22A, the self-cleavage turned out to be 0.03. For G7U G19A G22C the value was 0.03; for A4C U20G A26U U32A U34A G44A, 0.01; for G2C A12G C13G A14U G22A C23U A39C, 0.01. For G5C A26C C31G A41U C46G the value was 0.02. For C10G C23G U34A the value was 0.03; for G1A A4C A6U A12C U34C C46A, 0.03; for C15A U43A G44A, 0.11.

Regarding G1A G2U C3U C10G U28G, the self-cleavage came out at 0.03.

C31A U32G C37A: the self-cleavage was determined as 0.15. As to C13G G22C C31U A41U C45U, the self-cleavage was found to be 0.03.

With G2C U34G U38G, the self-cleavage worked out at 0.04. For U9G A12G U34C the value was 0.05; for G1A G19A U20G A25U, 0.16. As for A12G G21U C23A G35U C45G, the self-cleavage was found to be 0.01. For G1C G2C A14U U32C the value was 0.01; for A4G C8U C18G G22C A25U, 0.07; for A14G G22A G44A, 0.12.

G5A C10U G21A C23G G36A: the self-cleavage was found to be 0.03.

Turning to A11G A14U C37G, the self-cleavage worked out at 0.01. Take G2A A16G C42G: the self-cleavage worked out at 0.05. A6U U9C U43C: the self-cleavage stood at 0.05. As for U20C G22A C31A G44U, the self-cleavage was found to be 0.06.

With A12U U20A A24G G36A, the self-cleavage stood at 0.01. As for G2C A12G G21C, the self-cleavage is 0.03. In the case of A6U C31A G36U C46U, the self-cleavage is 0.06. For C15U A26C U38G the value was 0.03; for G1A U9C C42A, 0.09.
